# Test results as given in publication PMC4336329 (PLoS ONE, 2015).
# About 14,000 (4.5%) of roughly 310,000 compounds showed an effect of 50% or more. Effects have a minus sign here. The list shows a part of the results.
# Molecular target: human ether-à-go-go-related gene (hERG) potassium channel (human, UniProt Q12809)
# Assay: primary screen, population patch clamp on CHO cells stably expressing hERG
# 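Note: peak tail current of the secondary pulse compared with the same well before compound.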
# Chain of human ether-à-go-go-related gene (hERG) potassium channel (Q12809 whole entry, looked up): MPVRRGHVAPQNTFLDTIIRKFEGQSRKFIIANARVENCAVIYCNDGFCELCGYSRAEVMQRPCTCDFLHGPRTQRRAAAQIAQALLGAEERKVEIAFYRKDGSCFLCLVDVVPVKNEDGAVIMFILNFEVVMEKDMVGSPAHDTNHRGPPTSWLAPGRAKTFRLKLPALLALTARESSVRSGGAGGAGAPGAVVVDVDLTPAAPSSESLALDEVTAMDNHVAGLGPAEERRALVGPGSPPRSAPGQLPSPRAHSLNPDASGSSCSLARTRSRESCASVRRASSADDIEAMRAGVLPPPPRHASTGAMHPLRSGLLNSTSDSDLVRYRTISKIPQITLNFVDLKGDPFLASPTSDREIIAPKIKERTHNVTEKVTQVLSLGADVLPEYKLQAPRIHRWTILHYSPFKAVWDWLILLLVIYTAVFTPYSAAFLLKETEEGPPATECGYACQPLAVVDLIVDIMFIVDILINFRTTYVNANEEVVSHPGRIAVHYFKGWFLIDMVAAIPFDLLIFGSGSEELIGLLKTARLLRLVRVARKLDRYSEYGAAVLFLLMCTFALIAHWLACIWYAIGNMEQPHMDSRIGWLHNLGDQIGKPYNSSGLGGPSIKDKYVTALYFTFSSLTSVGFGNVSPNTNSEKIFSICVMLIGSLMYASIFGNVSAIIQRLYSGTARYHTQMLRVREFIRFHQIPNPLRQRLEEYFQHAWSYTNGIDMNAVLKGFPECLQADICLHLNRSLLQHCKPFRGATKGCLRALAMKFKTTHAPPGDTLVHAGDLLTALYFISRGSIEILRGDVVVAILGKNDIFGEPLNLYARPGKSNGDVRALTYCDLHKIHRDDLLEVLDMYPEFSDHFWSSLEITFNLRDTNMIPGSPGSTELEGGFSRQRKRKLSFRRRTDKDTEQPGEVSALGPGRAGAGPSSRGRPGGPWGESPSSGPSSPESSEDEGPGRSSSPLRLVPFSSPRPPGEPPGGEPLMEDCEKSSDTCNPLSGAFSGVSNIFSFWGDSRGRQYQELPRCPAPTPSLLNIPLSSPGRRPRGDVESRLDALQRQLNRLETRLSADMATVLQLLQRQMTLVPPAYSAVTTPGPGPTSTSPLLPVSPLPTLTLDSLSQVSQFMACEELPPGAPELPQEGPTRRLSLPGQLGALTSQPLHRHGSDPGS
row,SMILES,"hERG current change (%, negative = inhibition) at 10uM [%]"
1,Cc1cc(C)c(OCCNCc2ccccc2)c(C)c1.O=C(O)C(=O)O,-5.71
2,CNc1nc(SC)nc(N(C)C#N)n1,9.47
3,O=C(NCc1ccc2c(c1)OCO2)C1CC(=O)N(C2CCCCCC2)C1 (centres unmarked),-11.3
4,O=[N+]([O-])c1ccc(-c2nc(Nc3ccc(O)cc3)c3ccccc3n2)cc1,13
5,Cc1cc(NS(=O)(=O)c2ccc(N3C(=O)C4C5C=CC(C5)C4C3=O)cc2)nc(C)n1 (centres unmarked),16.8
6,O=C(CN(c1ccc(F)cc1)S(=O)(=O)c1ccc2c(c1)OCCO2)Nc1ccccc1,-23.6
7,COc1ccccc1NC(=O)CC12CC3CC(CC(Br)(C3)C1)C2,-4.01
8,CCc1cc2c(=O)c(-c3nc4ccccc4n3C)c(C)oc2c(CN(CC)CC)c1O,-4.52
9,Cc1cc(C(=O)N/N=C/c2ccc(OC(=O)c3ccccc3Br)cc2)n[nH]1,3.23
10,Cn1c(CNC(=O)c2ccco2)nnc1SCC(=O)Nc1cccc(Br)c1,-34.3
11,COc1ccccc1C(=O)Nc1ccc2c(c1)OCO2,-1.04
12,CC(C)(C)OC(=O)NCCCC[C@@H](C(=O)N1CCN(C(=O)OC(C)(C)C)CC1)n1cc(CCC(=O)O)nn1,3.83
13,COc1ccc(CCNCc2ccc(OC)c(OC)c2OC)cc1,-37.6
14,COC(=O)COc1cccc(NS(=O)(=O)c2ccc(NC(C)=O)cc2)c1,10.8
15,COc1ccc(C2CC(c3ccccc3)=NN2c2ccc(S(N)(=O)=O)cc2)cc1 (centres unmarked),12.6
16,Cc1nn(C)cc1CNCc1ccc(OCC(O)CN(C)Cc2ccccc2)cc1 (centres unmarked),5.56
17,C(=C\n1nnc2ccccc21)/c1ccccn1,-1.1
18,COc1ccccc1N1CCN(S(=O)(=O)CCNC(=O)C2CCCCC2)CC1,-20.7
19,COc1cccc(CN2CC(C(=O)NCCC3=CCCCC3)CCC2=O)c1 (centres unmarked),-18.8
20,COc1cc(/C=C/C(=O)c2ccc([N+](=O)[O-])o2)ccc1O,5.03
21,Cc1ccsc1C(=O)Nc1ccc(F)c([N+](=O)[O-])c1,5.57
22,N=C1S/C(=C\c2ccccc2)C(=O)N1c1ccc(F)cc1,10.1

row,SMILES,"hERG current change (%, negative = inhibition) at 10uM [%]"
1,Cl.NCCc1ccn[nH]1,14.3
2,O=c1c2ccccc2nc(CSc2ncnc3nc[nH]c23)n1-c1ccccc1,19.4
3,O=C(O)CCC(=O)NNC(=O)CCC(=O)Nc1ccccc1,26
4,O=C(CCCC(=O)NC1CCCCC1)Nc1ccc([N+](=O)[O-])cc1,-36.9
5,CCCCOC(=O)Nc1nnc(SCCOc2ccc(C)cc2)s1,2.05
6,CC1CC(C)CN(C(=O)COC(=O)c2cc(S(=O)(=O)N3CCOCC3)ccc2F)C1 (centres unmarked),-0.819
7,CC(C)Oc1cccc(C(=O)C2CCCN(C(=O)c3ccccn3)C2)c1 (centres unmarked),9.46
8,CC1(c2ccc3ccccc3c2)NC(=O)N(CC(=O)N2CCCC(C(F)(F)F)C2)C1=O (centres unmarked),-5.84
9,O=C(Cn1cnc2ccccc2c1=O)Nc1ccc(-c2nnc3n2CCCCC3)cc1,-4.47
10,CCc1nc2c(s1)CCc1onc(-c3ccc(Cl)cc3)c1-2,8.68
11,COc1ccc(C(O)Cn2ccsc2=NC(C)=O)cc1 (centres unmarked),23.5
12,NC(=S)N/N=C/c1ccc(Br)o1,-1.41
13,COc1ccc(N2CCN(C(=O)CCC(=O)c3cc(C)sc3C)CC2)cc1,-24.8
14,CCCCNC(=O)[C@@H]1CCCN1S(=O)(=O)c1cccc2cccnc12,0.308
15,Cc1nc2c(C)cccc2c2c1CCN2c1ccccc1F,-62.4
16,Cc1cc2c(c(=O)n1CCCn1ccnc1)C(c1ccco1)C(C#N)=C(N)O2 (centres unmarked),-3.23
17,COc1ccc(C2=NOC(Cn3nc(C(=O)NCC4CC4)cc3-c3ccccc3)C2)cc1 (centres unmarked),-65
18,Cc1ccc(N2C(=O)CN(Cc3cccs3)C2=S)cc1C,-3.2
19,O=C1Nc2c(Br)cc(Br)cc2C1(O)N1CCOCC1 (centres unmarked),2.85
20,CNCCCOc1ccc(C)cc1OC.O=C(O)C(=O)O,7.85
21,Cc1c(C(=O)O)oc2ccc(S(=O)(=O)N3CCCC3)cc12,32
22,C=C1C(=O)C=C2CN(C(=O)c3ccccc3)[C@@](Cc3ccc(F)cc3)(C(=O)OC)[C@@H]12,-3.22
